Some of the results follow. Sequences were assembled here from the parent chain. Inactive controls read about 0.05.
B1: TEV protease; numbered along this chain (parent)
chain: MGESLFKGPRDYNPISSSICHLTNESDGHTTSLYGIGFGPFIITNKHLFRRNNGTLVVQSLHGVFKVKDTTTLQQHLVDGRDMIIIRMPKDFPPFPQKLKFREPQREERICLVTTNFQTKSMSSMVSDTSCTFPSGDGIFWKHWIQTKDGQCGSPLVSTRDGFIVGIHSASNFTNTNNYFTSVPKNFMELLTNQEAQQWVSGWRLNADSVLWGGHKVFMVKPEEPFQPVKEATQL

Variants of: B1
Assay: raw area under fraction-flipped curve 0-4 h after induction (AUC4h, not background-subtracted), DNA-recorder readout of cleavage of the substrate (dimensionless); higher = more cleavage of the substrate by the protease variant
Conditions: temperature: 34 °C; time window: 0-4 h after rhamnose induction
Protocol: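 In vivo DNA recorder in E. coli TOP10(DE3) ΔrhaA at 34 °C. Each TEVp single-site mutant (parent TEVp 0) is paired with a single-site variant of the 7-mer TEVs (canonical ENLYFQ|S). The substrate sits between flexible linkers in a Bxb1-sfGFP-TEVs-SsrA fusion, so cleavage stabilises Bxb1 and speeds flipping of a recombination array, read by NGS. The value is the raw area under the fraction-flipped curve over 0-4 h after rhamnose induction (AUC4h), with ≥20 reads per time point. It is not background-subtracted; inactive controls average about 0.047.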
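Note: Bxb1 expression induced with 0.2% (w/v) L-rhamnose at OD600 near 0.5, cultures sampled hourly, flipped fraction per protease–substrate barcode pair counted by paired-end Illumina sequencing.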

| Variant | area with substrate ENLAFQS | area with substrate ENLDFQS | area with substrate ENLEFQS | area with substrate ENLFFQS | area with substrate ENLHFQS | area with substrate ENLKFQS | area with substrate ENLLFQS | area with substrate ENLNFQS | area with substrate ENLPFQS | area with substrate ENLQFQS | area with substrate ENLRFQS | area with substrate ENLSFQS | area with substrate ENLWFQS | area with substrate ENLCFQS | area with substrate ENLIFQS | area with substrate ENLMFQS | area with substrate ENLTFQS | area with substrate ENLGFQS | area with substrate ENLVFQS |
| --- | --- | --- | --- | --- | --- | --- | --- | --- | --- | --- | --- | --- | --- | --- | --- | --- | --- | --- | --- |
| MGESLFKGPRDYNPISSSICHLTNESDGHTTSLYGIGFGPFIITNKHLFRRNNGTLVVQSLHGVFKVKDTTTLQQHLVDGRDMIIIRMPKDFPPFPQKLKFREPQREERICLVTTNFQTKSMFSMVSDTSCTFPSGDGIFWKHWIQTKDGQCGSPLVSTRDGFIVGIHSASNFTNTNNYFTSVPKNFMELLTNQEAQQWVSGWRLNADSVLWGGHKVFMVKPEEPFQPVKEATQL [S123F] | 0.0695 | 0.0546 | 0.071 | 0.096 | 0.0578 | 0.0823 | 0.0592 | 0.0501 | 0.0522 | 0.0717 | 0.0738 | 0.0659 | 0.0796 | – | – | – | – | – | – |
| MGESLFKGPRDYNPISSSICHLTNESDGHTTSLYGIGFGPFIITNKHLFRRNNGTLVVQSLHGVFKVKDTTTLQQHLVDGRDMIIIRMPKDFPPFPQKLKFREPQREERICLVTTNFQTKSCSSMVSDTSCTFPSGDGIFWKHWIQTKDGQCGSPLVSTRDGFIVGIHSASNFTNTNNYFTSVPKNFMELLTNQEAQQWVSGWRLNADSVLWGGHKVFMVKPEEPFQPVKEATQL [M122C] | 0.0615 | 0.0396 | 0.0528 | 0.0947 | 0.08 | 0.0744 | – | 0.0669 | 0.0588 | 0.0671 | 0.0866 | 0.0715 | 0.0564 | 0.0803 | 0.0869 | 0.0856 | 0.0751 | – | – |
| MGESLFKGPRDYNPISSSICHLTNESDGHTTSLYGIGFGPFIITNKHLFRRNNGTLVVQSLHGVFKVKDTTTLQQHLVDGRDMIIIRMPKDFPPFPQKLKFREPQREERICLVTTNFQTKRMSSMVSDTSCTFPSGDGIFWKHWIQTKDGQCGSPLVSTRDGFIVGIHSASNFTNTNNYFTSVPKNFMELLTNQEAQQWVSGWRLNADSVLWGGHKVFMVKPEEPFQPVKEATQL [S121R] | 0.0617 | 0.0672 | 0.0634 | 0.0739 | – | 0.0812 | 0.0734 | 0.0665 | 0.064 | – | 0.0762 | – | 0.0585 | 0.0986 | – | 0.0858 | – | 0.0676 | 0.108 |
| MGESLFKGPRDYNPISSSICHLTNESDGHTTSLYGIGFGPFIITNKHLFRRNNGTLVVQSLHGVFKVKDTTTLQQHLVDGRDMIIIRMPKDFPPFPQKLKFREPQREERICLVTTNFQTKSMSSMVFDTSCTFPSGDGIFWKHWIQTKDGQCGSPLVSTRDGFIVGIHSASNFTNTNNYFTSVPKNFMELLTNQEAQQWVSGWRLNADSVLWGGHKVFMVKPEEPFQPVKEATQL [S127F] | 0.0652 | 0.049 | 0.081 | 0.14 | 0.0803 | 0.0925 | – | 0.0728 | 0.0674 | 0.0745 | – | 0.0655 | 0.101 | 0.0825 | 0.0834 | – | – | – | 0.102 |
| MGESLFKGPRDYNPISSSICHLTNESDGHTTSLYGIGFGPFIITNKHLFRRNNGTLVVQSLHGVFKVKDTTTLQQHLVDGRDMIIIRMPKDFPPFPQKLKFREPQREERICLVTTNFQTKSMSSMVVDTSCTFPSGDGIFWKHWIQTKDGQCGSPLVSTRDGFIVGIHSASNFTNTNNYFTSVPKNFMELLTNQEAQQWVSGWRLNADSVLWGGHKVFMVKPEEPFQPVKEATQL [S127V] | 0.0645 | 0.0686 | 0.0743 | 0.084 | 0.0699 | 0.0789 | – | 0.0698 | 0.0508 | – | 0.0721 | 0.0589 | 0.0562 | 0.0661 | – | 0.0878 | – | 0.0673 | 0.0873 |
| MGESLFKGPRDYNPISSSICHLTNESDGHTTSLYGIGFGPFIITNKHLFRRNNGTLVVQSLHGVFKVKDTTTLQQHLVDGRDMIIIRMPKDFPPFPQKLKFREPQREERICLVTTNFQTKSMSSMVSPTSCTFPSGDGIFWKHWIQTKDGQCGSPLVSTRDGFIVGIHSASNFTNTNNYFTSVPKNFMELLTNQEAQQWVSGWRLNADSVLWGGHKVFMVKPEEPFQPVKEATQL [D128P] | 0.0586 | – | – | 0.0979 | 0.074 | – | – | 0.0546 | 0.0434 | – | – | 0.0772 | 0.0838 | – | – | – | 0.0684 | – | 0.115 |
| MGESLFKGPRDYNPISSSICHLTNESDGHTTSLYGIGFGPFIITNKHLFRRNNGTLVVQSLHGVFKVKDTTTLQQHLVDGRDMIIIRMPKDFPPFPQKLKFREPQREERICLVTTRFQTKSMSSMVSDTSCTFPSGDGIFWKHWIQTKDGQCGSPLVSTRDGFIVGIHSASNFTNTNNYFTSVPKNFMELLTNQEAQQWVSGWRLNADSVLWGGHKVFMVKPEEPFQPVKEATQL [N116R] | 0.069 | 0.068 | 0.0634 | – | – | 0.0836 | – | 0.0743 | 0.0347 | – | – | 0.0544 | – | 0.0609 | 0.084 | – | – | – | – |
| MGESLFKGPRDYNPISSSICHLTNESDGHTTSLYGIGFGPFIITNKHLFRRNNGTLVVQSLHGVFKVKDTTTLQQHLVDGRDMIIIRMPKDFPPFPQKLKFREPQREERICLVTTNFQTRSMSSMVSDTSCTFPSGDGIFWKHWIQTKDGQCGSPLVSTRDGFIVGIHSASNFTNTNNYFTSVPKNFMELLTNQEAQQWVSGWRLNADSVLWGGHKVFMVKPEEPFQPVKEATQL [K120R] | 0.0655 | 0.065 | 0.0595 | 0.088 | 0.0627 | 0.0799 | – | 0.07 | 0.0957 | 0.0885 | – | 0.0613 | 0.0941 | 0.0784 | – | 0.0532 | 0.0568 | 0.0698 | 0.0396 |
| MGESLFKGPRDYNPISSSICHLTNESDGHTTSLYGIGFGPFIITNKHLFRRNNGTLVVQSLHGVFKVKDTTTLQQHLVDGRDMIIIRMPKDFPPFPQKLKFREPQREERICLVTTNDQTKSMSSMVSDTSCTFPSGDGIFWKHWIQTKDGQCGSPLVSTRDGFIVGIHSASNFTNTNNYFTSVPKNFMELLTNQEAQQWVSGWRLNADSVLWGGHKVFMVKPEEPFQPVKEATQL [F117D] | 0.0618 | – | 0.0767 | 0.0926 | 0.0705 | 0.0846 | – | – | 0.0642 | – | – | – | – | 0.0681 | – | 0.0834 | – | – | – |

Reference: the supplement of paper PMC12217912
